Article PMC4336329 (PLoS ONE, 2015)
Among all 310,000 compounds or so, about 2,200 (0.71%) showed an effect of 50% or more. Effects have a minus sign here. The list shows a part of the results.

molecular target: human ether-à-go-go-related gene (hERG) potassium channel (human, UniProt Q12809); assay: primary screen, population patch clamp on CHO cells stably expressing hERG
Sequence (Q12809 whole entry, looked up): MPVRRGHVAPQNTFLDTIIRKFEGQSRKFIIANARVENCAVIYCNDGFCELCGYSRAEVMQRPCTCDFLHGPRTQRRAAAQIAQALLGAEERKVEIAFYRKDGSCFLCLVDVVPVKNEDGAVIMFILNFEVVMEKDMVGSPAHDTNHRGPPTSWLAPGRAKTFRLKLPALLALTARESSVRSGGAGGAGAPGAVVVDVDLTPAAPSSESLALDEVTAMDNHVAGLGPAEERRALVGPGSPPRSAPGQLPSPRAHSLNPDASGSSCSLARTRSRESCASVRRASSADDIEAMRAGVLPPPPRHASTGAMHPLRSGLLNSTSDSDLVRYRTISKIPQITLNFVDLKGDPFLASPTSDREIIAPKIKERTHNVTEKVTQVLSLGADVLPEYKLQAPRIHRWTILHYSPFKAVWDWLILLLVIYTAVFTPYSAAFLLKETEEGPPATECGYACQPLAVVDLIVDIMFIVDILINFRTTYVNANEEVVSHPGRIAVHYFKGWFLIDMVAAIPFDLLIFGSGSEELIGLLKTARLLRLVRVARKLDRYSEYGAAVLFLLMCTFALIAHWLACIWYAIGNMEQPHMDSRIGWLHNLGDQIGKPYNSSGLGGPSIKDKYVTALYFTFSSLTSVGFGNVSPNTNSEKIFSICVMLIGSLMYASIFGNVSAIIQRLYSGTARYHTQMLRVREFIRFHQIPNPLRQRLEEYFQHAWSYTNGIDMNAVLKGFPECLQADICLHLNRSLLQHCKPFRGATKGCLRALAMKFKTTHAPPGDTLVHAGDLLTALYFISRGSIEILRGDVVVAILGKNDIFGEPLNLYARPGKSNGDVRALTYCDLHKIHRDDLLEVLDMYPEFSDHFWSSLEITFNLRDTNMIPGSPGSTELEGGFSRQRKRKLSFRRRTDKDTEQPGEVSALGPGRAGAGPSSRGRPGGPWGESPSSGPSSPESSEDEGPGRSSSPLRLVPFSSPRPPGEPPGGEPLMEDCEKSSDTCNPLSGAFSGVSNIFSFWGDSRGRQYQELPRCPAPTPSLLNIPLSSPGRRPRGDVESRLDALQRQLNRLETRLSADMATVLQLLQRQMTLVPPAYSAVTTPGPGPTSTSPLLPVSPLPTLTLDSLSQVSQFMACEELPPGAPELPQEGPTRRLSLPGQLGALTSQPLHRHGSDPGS

Structure (SMILES)	hERG current change (%, negative = inhibition) at 1uM
COc1ccc(CCN2C(=O)CC(NNc3ccc([N+](=O)[O-])cc3)C2=O)cc1OC (stereo not shown)	-12.9%
COC(=O)c1ccc(CSc2nc3c(cnn3-c3ccc(C)cc3)c(=O)[nH]2)o1	11.5%
O=C(C(=O)N1CCN(C(=O)c2ccco2)CC1)c1c[nH]c2ccccc12	6.21%
C=CCc1cccc(OC)c1OCCOCCn1ccnc1.O=C(O)C(=O)O	3.52%
COC(=O)c1ccc2nc(Nc3nc4ccc(F)cc4s3)sc2c1	3.46%
CCOc1ccc(C2NC(=O)C(C#N)=C(S)N2c2ccc(OC)cc2)cc1OC (stereo not shown)	3.66%
CN(CC(=O)Nc1cccc(F)c1)C(=O)C1CSC2(C)CCC(=O)N12 (stereo not shown)	7.55%
O=C(C[n+]1ccccc1)N1c2ccccc2Sc2ccccc21.[Cl-]	7.16%
CCc1ccc(NC(=S)N2CCN(C)CC2)cc1	13.8%
CCSc1nnc(NC(=O)CCn2c(=O)oc3ccccc32)s1	16.4%
COc1ccccc1CNC(=O)CS(=O)(=O)c1ccccc1	-14.4%
Cc1ccc(S(=O)(=O)N2CCCCC2)cc1NC(=O)COC(=O)Cc1cccc2ccccc12	-6.2%
CC(C)COC(=O)Cn1cnc2ccc(Br)cc2c1=O	6.01%
COc1ccc(OC)c(CCNC(=O)CCn2nc(C)c3c(C)n(-c4ccccc4)nc3c2=O)c1	13.8%
Clc1ccc(OCCCCCN2CCOCC2)cc1	-3.05%
CCOC(=O)C1(P(=O)(c2ccc(Cl)cc2)c2ccc(Cl)cc2)CCC1	-7.76%
Cc1ccc(C(CC(=O)N2CCCC2)c2ccccc2)c(O)c1 (stereo not shown)	9.48%
COC(=O)COc1ccc(NS(=O)(=O)c2cccc([N+](=O)[O-])c2)cc1	15.3%
O=C(COC(=O)C1(c2ccc(F)cc2)CCCC1)NCc1ccco1	5.84%
CCOc1ccc(CN(C)C(=O)c2cccc(S(=O)(=O)N3CCCC3)c2)cc1OC	7.52%
COC1=C(OC)c2ccccc2C(C(=O)O)N/C1=C(/C)Nc1ccncc1 (stereo not shown)	-0.985%
O=C(NCCc1c[nH]c2ccccc12)/C(=C\c1cccnc1)NC(=O)c1ccccc1F	-4.23%

Structure (SMILES)	hERG current change (%, negative = inhibition) at 1uM
O=C1NC(=O)C(=Cc2ccc(N3CCN(C(=O)c4ccccc4)CC3)c([N+](=O)[O-])c2)C(=O)N1	-20.9%
O=C(CC1(O)C(=O)Nc2ccccc21)c1ccc2c(c1)OCO2 (stereo not shown)	-0.406%
Cc1c(C(=O)N(C)C2CCCCC2)sc2ncnc(N3CCN(c4ccccc4F)CC3)c12	-0.556%
CCCN1CCN(CCCNC(=O)c2ccc(NC(=O)C3=C(C)OCCS3)cc2)CC1	10.1%
Cc1ccc(N(CC(=O)N2CCn3c2nc2ccccc23)S(=O)(=O)c2c(C)n[nH]c2C)cc1	-7.48%
CCn1cnc2cc(NCc3ccc(Cl)cc3)ccc21	1.06%
COc1ccc(NS(=O)(=O)c2ccc(-c3coc(C)n3)cc2)cc1OC	18.7%
C[C@H](NC(=O)c1nc[nH]c1C(=O)N[C@@H](Cc1ccccc1)C(=O)OCc1ccccc1)c1ccccc1	10.7%
Cc1cc(C(=O)N[C@H](c2ccccc2)[C@@]2(C)C[C@@H]2[C@@H](C)C(=O)Nc2ccc3ccccc3c2)no1	4.33%
O=C(C1CC(c2ccc(F)cc2)=NO1)N1CCCc2ccccc21 (stereo not shown)	5.13%
Cc1cc(=O)oc2cc(OCC(=O)NC3CC(C)(C)NC(C)(C)C3)c(Cl)cc12	21.2%
COC(=O)c1cc(CSc2nnc(-c3ccccc3)c(-c3ccccc3)n2)oc1C	13.4%
CC(=O)NCCc1ccc(S(=O)(=O)Nc2ccc3c(c2)OCCO3)cc1	14.4%
COc1cccc(-c2nc3ccccc3s2)c1	9.73%
Cc1nn(-c2ccccc2)c(C)c1NC(=O)COC(=O)c1ccccc1OC(F)F	16%
CSc1cccc(CN2CCN(Cc3ccccc3)C(CCO)C2)c1 (stereo not shown)	-1.33%
Cc1ccc(Sc2oc(/C=N/n3cnnc3)cc2Br)cc1	8.72%
COc1nc(N)nc(NC23CC4CC(CC(C4)C2)C3)n1	-14.4%
Cc1ccc(C(=O)NC(C)CCc2ccccc2)cc1[N+](=O)[O-] (stereo not shown)	-0.573%
COCCCNC(=O)c1cc(S(=O)(=O)N2CCOCC2)ccc1SCc1cccc(OC)c1OC	-11.1%
CC(C)(C)OC(=O)N1CCC(c2c(C(=O)NC3CC3)cnn2-c2ccccc2)CC1	10.5%
COc1ccc(N(CC(=O)NC2CCCCCC2)S(=O)(=O)c2c(C)nn(C)c2C)cc1	-5.15%

Structure (SMILES)	hERG current change (%, negative = inhibition) at 1uM
O=C(CS(=O)c1ccc(C(F)(F)F)cc1[N+](=O)[O-])Oc1ccc(Cl)cc1 (stereo not shown)	19.2%
N#Cc1ccc(Cl)cc1NC(=O)CNCc1cccs1.O=C(O)C(=O)O	1.05%
O=C1c2ccccc2-c2nc3ccccc3nc21	-9.46%
CCc1sc(NS(C)(=O)=O)nc1-c1ccccc1	-1.55%
Nc1ccccc1SCc1cc([N+](=O)[O-])cc2c1OCOC2	0.0801%
CCN(CC)S(=O)(=O)c1cc(NC(=O)CNc2cccc(S(=O)(=O)N3CCCC3)c2)ccc1C	1.89%
CNC(=O)C(=O)NCC1OCCCN1S(=O)(=O)c1cccs1 (stereo not shown)	6.32%
Cc1cc(C)n(/N=C/c2ccccc2)c(=O)c1C#N	16.9%
Cc1ccc(NC(=O)c2cccc(S(=O)(=O)N3CCN(C)CC3)c2)cc1F	1.1%
Cc1cc(=O)c2c(C)nn(-c3ccccc3)c2[nH]1	7.95%
O=C(O)C1CC(=O)N(c2ccc3c(c2)OCCO3)C1 (stereo not shown)	6.4%
CCC(=O)N1CCN(c2nc(CC)nc3sc4c(c23)CCCC4)CC1	-1.87%
CCOc1ccccc1OCC(=O)Nc1ccc(S(=O)(=O)Nc2ncccn2)cc1	7.46%
O=C(O)CNC(=S)NCc1ccccc1	10.5%
CCN(CC)c1nc(NN)nc(Nc2ccc(C)c(Cl)c2)n1	11.7%
CCn1c(C(C)NC(=O)Cc2ccccc2)nc2ccccc21 (stereo not shown)	10.8%
O=S(=O)(NCCNc1ncc(C(F)(F)F)cc1Cl)C(F)(F)F	-5.55%
C/C(Cl)=C\Cn1c(O)c(N=NC(N)=S)c2cc(Br)ccc21	14.7%
CSc1ccc(/C=C/C(=O)c2c(O)cc(C)oc2=O)cc1	9.03%
COc1ccc(CCNC(=O)c2ccc(CNc3nc(=S)[nH]c4ccccc34)cc2)cc1OC	8.17%
COc1cc(-c2c(C#N)c(N)nc3c2CCCC3)cc(OC)c1OC	2.13%
O=C(COc1ncnc2ccc(Br)cc12)Nc1ccc(N2CCOCC2)cc1	4.29%

Structure (SMILES)	hERG current change (%, negative = inhibition) at 1uM
O=C(NC1CCCCC1)C(c1ccncc1)N(Cc1ccccc1)C(=O)c1ccc(-c2ccccc2)[nH]1 (stereo not shown)	15.6%
CCOC(=O)C1CCCN(c2nc3ccccc3nc2C(C#N)C(=O)OCC)C1 (stereo not shown)	7.03%
COCCCN(C(=O)CCSc1ccc(F)cc1)c1c(N)n(Cc2ccccc2)c(=O)[nH]c1=O	10.1%
O=C(NCCN1C(=O)S/C(=C\c2ccccc2F)C1=O)C1=COCCO1	3.53%
CCOC(=O)c1sc(NC(=O)CN2C(=O)NC3(CC(C)CC(C)(C)C3)C2=O)c(C(=O)OCC)c1C (stereo not shown)	10.6%
COc1ccccc1CNC(=O)C(=O)NCC1OCCN1C(=O)c1ccc(Cl)cc1 (stereo not shown)	3.47%
C=Cc1ccc(C(=O)N2CCCC(CCC(=O)N3CCN(c4ccccn4)CC3)C2)cc1 (stereo not shown)	10.2%
CNNC(=S)Nc1cccc(SC)c1	14.3%
CCOc1ccc(C(=O)NCc2ccco2)cc1OCC	11.8%
S=C1NCCNC(=S)NCCOCCN1	13.3%
Cc1nc([N+](=O)[O-])cn1CC(=O)Nc1ccc(Cl)cc1	14.3%
Cc1ccccc1C(=O)OCCCN=C1NS(=O)(=O)c2ccccc21	1.75%
CC(=O)c1c(C)[nH]c(C(=O)OCn2nnc3ccccc3c2=O)c1C	10.7%
CC(C)[C@H](NC(=O)[C@H]1N2C(=O)c3ccccc3C2SC1(C)C)C(=O)NCc1ccco1 (stereo partly shown)	11.4%
COCCN(C(=S)Nc1ccc(C(C)C)cc1)C(C)c1cccs1 (stereo not shown)	10.1%
Cc1c(NC(=O)C(C)OC(=O)/C=C/c2ccc(OC(F)F)cc2)c(=O)n(-c2ccccc2)n1C (stereo not shown)	4.66%
CN(C)c1ccc(/C=C(/C(=O)c2ccc(Cl)cc2Cl)n2cncn2)cc1	15.7%
Cn1c(=O)c(C(=O)Nc2ccccc2S(N)(=O)=O)c(O)c2ccccc21	3.42%
COc1cc(Cl)c([C@@H]2C[C@H]3CN(c4ccccc4)C(=O)[C@]34CCCN24)cc1OC	-47.3%
